Hit rate of the full screen: of about 410,000 compounds, about 5,000 (1.2%) were called active. The shares of active, inactive and inconclusive entries below differ from those in the screen. The call rests on the fitted dose curve; in most records, active means well fitted inhibition curve with a large enough effect; inconclusive means small, poorly fitted or top-dose-only effect; inactive means no such curve, though single readings can be large or run the other way. Potencies beside an inconclusive call are fits to weak or partial responses and may not hold up.
Test: qHTS for Inhibitors of TGF-b; further: nearly all actives have a fitted effect of over 65% in size
Conditions: HepG2 CAGA-GFP TGF-b/SMAD3 reporter, GFP fluorescence, 18 h, TGF-beta stimulated, 500 pg/mL final; series mostly up to 46.1 µM
How it was run: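 GFP signal (ex488/em500-530) from TGF-beta-stimulated HEPG2 CAGA-GFP cells, 500 pg/mL final, 18 h at 37 degrees C in DMEM plus 1% FBS, normalized to unstimulated and DMSO-stimulated controls.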
Potency means the concentration at half of the fitted maximal effect; tags describe the fitted curve by direction and shape.

Question: Which Potency does the source give for Cc1cc(C)c2c(c1)-c1cc(C)nn1C(c1cccnc1)N2 (stereo unspecified) here?
Answer: inactive

Question: With COC(=O)C1=C(c2ccccc2OCc2ccccc2)C[C@@H]2CC[C@H]1N2C(=O)NCc1ccc(N(C)C)cc1 as the molecule, how does the Potency read?
Answer: inconclusive: 3.16 µM [inhibitor, single point]

Question: With CN1CCN(c2ccc(N)cc2)CC1 as the molecule, how does the Potency read?
Answer: inconclusive: 6.31 µM [inhibitor, single point]

Question: For CN(C(=O)CNC(=O)OCc1ccccc1)c1ccc(Br)cc1C(=O)c1ccccc1Cl, which Potency is on record?
Answer: inconclusive: 35.5 µM [inhibitor, single point]

Question: With C=CCNC(=O)c1c(N)n(Cc2ccco2)c2nc3ccccc3nc12 as the molecule, how does the Potency read?
Answer: inactive

Question: With Cc1nc(C)c(C(=O)NN=Cc2ccc(N(CCCl)CCCl)cc2)s1 as the molecule, how does the Potency read?
Answer: inconclusive: 12.6 µM [inhibitor, partial curve, poor fit]

Question: Which Potency does the source give for O=C(CCc1ccccc1)N1Cc2cc(-c3cccc(F)c3)ccc2-n2nncc2C1 here?
Answer: inconclusive: 12.6 µM [inhibitor, partial curve, poor fit]

Question: For CCOc1cc2c(cc1OCC)-n1cccc1C(c1ccc(C(C)C)cc1)NC2 (stereo unspecified), which Potency is on record?
Answer: inconclusive: 25.1 µM [inhibitor, single point]

Question: Which Potency does the source give for Cc1ccc2c(c1)C(Cc1nc3ccccc3c(=O)n1-c1ccc(Br)cc1)C(=O)N2 (stereo unspecified) here?
Answer: inconclusive: 35.5 µM [inhibitor, single point]

Question: For Cc1cccc(CN2CCCN(Cc3ccc(Cl)cc3)S2(=O)=O)c1, which Potency is on record?
Answer: inconclusive: 35.5 µM [inhibitor, single point]

Question: For CCN(CC)C(=O)c1ccc(NC(=O)c2ccc(N3CCCC3=O)cc2)cc1, which Potency is on record?
Answer: inactive

Question: With Cc1ccc(-c2[nH]nc3c2C(c2ccccc2OC(=O)N2CCOCC2)C(C#N)=C(N)O3)cc1 (stereo unspecified) as the molecule, how does the Potency read?
Answer: inconclusive: 25.1 µM [inhibitor, single point]

Question: For Cc1ccc(NC(=O)Nc2cc3c(cc2N2CCCCC2)n(C)c(=O)n3C)cc1Cl, which Potency is on record?
Answer: inconclusive: 11.2 µM [inhibitor, partial curve, poor fit]

Question: With N#CSCC(=O)N1c2ccccc2CCc2ccccc21 as the molecule, how does the Potency read?
Answer: active: 25.1 µM

Question: With CN1CC(C(=O)c2ccccc2)C(c2ccccc2)C1 (stereo unspecified) as the molecule, how does the Potency read?
Answer: inactive

Question: With COC(=O)C1=C(c2ccc(F)cc2F)C[C@@H]2CC[C@H]1N2C as the molecule, how does the Potency read?
Answer: inconclusive: 1.41 µM [inhibitor, partial curve, poor fit]

Question: With CCC(C)N1C(=O)/C(=C\c2ccc(N3CCCCCC3)cc2)C(=O)NC1=S (stereo unspecified) as the molecule, how does the Potency read?
Answer: inactive

Question: For Cc1cc(O)c2c(c1)C(=O)C13C(=C2O)C(=O)[C@H]2[C@@H](O)[C@@H]1[C@H]1[C@H](O)[C@@H]3C(=O)C3=C(O)c4c(O)cc(C)cc4C(=O)C312 (stereo partly specified), which Potency is on record?
Answer: inconclusive: 3.98 µM [inhibitor, partial curve, poor fit]

Question: With CCOP(=O)(OCC)C(Cc1ccccc1)N=C(c1ccccc1)c1ccccc1 (stereo unspecified) as the molecule, how does the Potency read?
Answer: inconclusive: 15.8 µM [inhibitor, partial curve, poor fit]

Question: With CCCCN=C[C@]12CCC(O)CC1(O)CCC1[C@@H]2CC[C@]2(C)[C@H](C3C=CC(=O)O3)CCC12O (stereo partly specified) as the molecule, how does the Potency read?
Answer: active: 3.55 µM

Question: For C[C@H]1CN([C@@H](C)CO)C(=O)c2cc(NC(=O)C3CCCCC3)ccc2O[C@H]1CN(C)Cc1ccc(-c2ccccc2)cc1, which Potency is on record?
Answer: inconclusive: 22.4 µM [inhibitor, single point]

Question: For CC1CCN(C(=O)CCl)CC1, which Potency is on record?
Answer: inactive

Question: With CC(=O)OC1CC(OC2C(O)CC(OC3C(O)CC(OC4CCC5(C)C(CCC6C5CCC5(C)C(C7=CC(=O)OC7)C(O)CC65O)C4)OC3C)OC2C)OC(C)C1OC1OC(CO)C(O)C(O)C1O (stereo unspecified) as the molecule, how does the Potency read?
Answer: active: 2 µM

Question: With O=C(CN1CCCCC1)c1ccccc1Cl as the molecule, how does the Potency read?
Answer: inconclusive: 35.5 µM [inhibitor, single point]

Question: For On1ccccc1=S, which Potency is on record?
Answer: active: 0.282 µM

Question: With CC(C)COP(=O)(OCC(C)C)C(Nc1ccccc1)c1ccccc1 (stereo unspecified) as the molecule, how does the Potency read?
Answer: inconclusive: 11.2 µM [inhibitor, partial curve]

Question: Which Potency does the source give for CC(C)CCOP(=O)(c1ccc(N(C)C)cc1)C(O)c1ccc(C(C)C)cc1 (stereo unspecified) here?
Answer: inconclusive: 17.8 µM [inhibitor, single point]

Question: For O=C(NC1CCCCC1)N1Cc2cc(-c3cccc(F)c3)ccc2-n2nncc2C1, which Potency is on record?
Answer: inconclusive: 28.2 µM [inhibitor, single point]

Question: With COC(=O)[C@@H]1[C@@H](C(=O)OC)C2(c3ccccc3-c3ccccc32)N(c2ccc(Cl)cc2)N1C#N as the molecule, how does the Potency read?
Answer: inconclusive: 20 µM [inhibitor, partial curve, poor fit]

Question: For Cc1nnc2n1-c1ccc(Br)cc1C(c1ccccc1Cl)=NC2, which Potency is on record?
Answer: inactive

Question: With CC1(C)CSC(=NCc2ccccc2)N1 as the molecule, how does the Potency read?
Answer: active: 8.91 µM

Question: For Cc1ccc(-n2sc3ccccc3c2=O)cc1, which Potency is on record?
Answer: inconclusive: 10 µM [inhibitor, partial curve, poor fit]

Question: Which Potency does the source give for Cc1cccc(CN2CC=C(c3noc(CCC(=O)Nc4ccc(C)c(F)c4)n3)CC2)c1 here?
Answer: inconclusive: 12.6 µM [inhibitor, partial curve, poor fit]

Question: For CSc1cccc(CNC(=O)C2CCC(=O)N(Cc3cccc(C(F)(F)F)c3)C2)c1 (stereo unspecified), which Potency is on record?
Answer: inconclusive: 22.4 µM [inhibitor, single point]

Question: Which Potency does the source give for Cc1cc(C(=O)Nc2ccccc2)nn1C(C)(C)C here?
Answer: inactive

Question: With Fc1ccc(C2=CCN(C(c3ccc(Cl)cc3)c3nnnn3Cc3ccccc3)CC2)cc1 (stereo unspecified) as the molecule, how does the Potency read?
Answer: inactive

Question: With COc1cc([C@@H]2c3cc4c(cc3[C@H](OC(C)=O)[C@H]3COC(=O)[C@@H]23)OCO4)cc(OC)c1OC as the molecule, how does the Potency read?
Answer: inconclusive: 3.55 µM [inhibitor, full curve, poor fit]

Question: With CCCCn1c(O)c(/C=C2/C=CC=N2)c(=O)[nH]c1=O as the molecule, how does the Potency read?
Answer: inactive

Question: With CCc1nnc(NC(=O)CCc2nc(C3=CCN(C)CC3)no2)s1 as the molecule, how does the Potency read?
Answer: inactive

Question: For C=CC[C@@H](CC(=O)N(CCO)Cc1ccccc1)C(=O)NC[C@H](OC(=O)[C@@H](CC=C)CC(=O)OC(C)(C)C)c1ccccc1, which Potency is on record?
Answer: inconclusive: 12.6 µM [inhibitor, partial curve, poor fit]

Question: Which Potency does the source give for COc1ccc(NC(=O)c2sc3nc4c(cc3c2N)N2CCC4CC2)cc1OC here?
Answer: inconclusive: 17.8 µM [inhibitor, single point]

Reference: PubChem BioAssay AID588855 (National Center for Advancing Translational Sciences (NCATS), 2011)
